Data from the supplement of paper PMC10126150.
Sequences with one replicate were seen in a single cluster, so their values are uncertain.

Tested on: ATP
Assay: switch fluorescence ratio, 500 uM ATP over buffer (Cy3 cluster intensity, sum of 5 cycles each) (fold (ratio)); higher = stronger signal-on switching upon ATP binding; sequences stand for … in TCGTCGGCAGCGTCAGATGTGTATAAGAGACAGTTTTTTTTTTTTTTTTTTTTTTTTT…TC
Conditions: aptamer strand: ATP DNA aptamer (quencher-CACCTGGGGGAGTATTGCGGAGGAAGG + anchor), 100 nM annealed; ATP concentration: 500 uM; one replicate
In short: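 Between each of five buffer/ATP cycles, the flow-cell was stripped with NaOH and re-annealed. Each cycle imaged Cy3-labelled switching-strand clusters, annealed to 100 nM quencher-labelled ATP aptamer on a modified Illumina MiSeq flow-cell, first in selection buffer and then after 15 min with 500 uM ATP at 22 °C. The fluorescence ratio is summed target-cycle over summed buffer-cycle Cy3 intensity per cluster, averaged per switch-domain sequence, with clusters outside 100-1000 RFU excluded.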
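Further: ATP exposure 15 min at 22 °C before imaging.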

AACGCGAGGG
switch fluorescence ratio: 1.01

ATTAAAAGAG
switch fluorescence ratio: 1.02

GTCTTTAAGT
switch fluorescence ratio: 0.958

CAGGATCCGG
switch fluorescence ratio: 0.974

GTGGGACAGA
switch fluorescence ratio: 1.03

CGTTACTATG
switch fluorescence ratio: 0.998

CGGGCGACGG
switch fluorescence ratio: 1

CGCCCGGCAT
switch fluorescence ratio: 1.03

TAAGGCTTCC
switch fluorescence ratio: 1.6

GAGACGGCGT
switch fluorescence ratio: 0.981

ATAAGGCCAG
switch fluorescence ratio: 1.04

GGTCCGTAGA
switch fluorescence ratio: 0.992

ATACCTCAGA
switch fluorescence ratio: 0.974

TATGGTTCGG
switch fluorescence ratio: 0.999

ACCTTCGAAA
switch fluorescence ratio: 2.9

CCGACTTGTC
switch fluorescence ratio: 1.12

AGGCGATCCT
switch fluorescence ratio: 1

TAGAAAAAAT
switch fluorescence ratio: 0.986

AAAGTCAATA
switch fluorescence ratio: 1.08

TGACCTCAGC
switch fluorescence ratio: 1.11

ACAACAGCTT
switch fluorescence ratio: 1.01

AACGAATCGT
switch fluorescence ratio: 0.988

CGGTATCCAT
switch fluorescence ratio: 0.961

CGGTCAGTCT
switch fluorescence ratio: 0.987

ACTCAAAGCC
switch fluorescence ratio: 1.05

ACAACAAGAC
switch fluorescence ratio: 1.63

TACAATAGAA
switch fluorescence ratio: 0.995

AGCAACGTTA
switch fluorescence ratio: 1.04

GCGAATGCAT
switch fluorescence ratio: 1.05

ATTGGCGGGG
switch fluorescence ratio: 1.06

GACAGAAGAA
switch fluorescence ratio: 1.01

AGTCTATCTA
switch fluorescence ratio: 1.04

GCGTCGTGGA
switch fluorescence ratio: 1.05

CACTGATGAA
switch fluorescence ratio: 0.984

TGGCTGCTAA
switch fluorescence ratio: 0.965

ATTAGTATTA
switch fluorescence ratio: 1.01

CACTGAGGGG
switch fluorescence ratio: 1.05

AAACCTCGGA
switch fluorescence ratio: 1.03

GGTTTCTATT
switch fluorescence ratio: 0.999

ACTTAATTT
switch fluorescence ratio: 0.977

CAAACAAAGC
switch fluorescence ratio: 1.03

CGGGAATCCG
switch fluorescence ratio: 0.965

GAGTTCAACG
switch fluorescence ratio: 0.947

GGAGTGGTG
switch fluorescence ratio: 0.978

CCTCGACCGA
switch fluorescence ratio: 1.3

TCAGAAATCC
switch fluorescence ratio: 0.992

GTATCGCTT
switch fluorescence ratio: 1.01

TGTTCACTG
switch fluorescence ratio: 1.02

CTAATCCCTC
switch fluorescence ratio: 1.04

AAACCAAAAT
switch fluorescence ratio: 1.04

AAGATCGGCT
switch fluorescence ratio: 1.03

CATATCCT
switch fluorescence ratio: 1.05

ATTAAGTAAG
switch fluorescence ratio: 1.01

CGCGTATCA
switch fluorescence ratio: 1.07

CATGGGGATA
switch fluorescence ratio: 0.988

CGTTTCTTAT
switch fluorescence ratio: 0.954

TCAATTTTC
switch fluorescence ratio: 1.02

TGGCAGTGAA
switch fluorescence ratio: 0.997

GCACGATCCC
switch fluorescence ratio: 1.36

CTAGACCTGT
switch fluorescence ratio: 0.978

CAACCAAAG
switch fluorescence ratio: 1.02

TTCGAAATCG
switch fluorescence ratio: 1.02

CGAACTATTC
switch fluorescence ratio: 1.06

TACCGAATAG
switch fluorescence ratio: 1.27

TGCGAACGAA
switch fluorescence ratio: 1.12

CGGATACATA
switch fluorescence ratio: 1.05

CGCTGTATTT
switch fluorescence ratio: 0.997

ATAAAACACT
switch fluorescence ratio: 1.03

GGGCGATTCG
switch fluorescence ratio: 1.06

GGCGGGCACC
switch fluorescence ratio: 0.992

AGATAGTGAC
switch fluorescence ratio: 1

ATGTCGAACG
switch fluorescence ratio: 1.01

AAGCAGAAAA
switch fluorescence ratio: 1.21

TGAGAACCGG
switch fluorescence ratio: 0.957

GTGGTTGAA
switch fluorescence ratio: 0.985

AAAGGCTTGT
switch fluorescence ratio: 0.986

CGTTCAGGG
switch fluorescence ratio: 1.06

ACACTATGAT
switch fluorescence ratio: 1.04

GCTTGAATG
switch fluorescence ratio: 1.02

CCGCGAGCGA
switch fluorescence ratio: 1.86

CTTCATGCTG
switch fluorescence ratio: 1

CCCCCCGTGA
switch fluorescence ratio: 3.4

AAGCTCCACC
switch fluorescence ratio: 1.04

ATACAAGCCG
switch fluorescence ratio: 1.37

AAAGGGCCGG
switch fluorescence ratio: 1.01

GTTTCCAGCA
switch fluorescence ratio: 1.02

TATCATCGCG
switch fluorescence ratio: 0.973

TGGAATGCT
switch fluorescence ratio: 1.06

AGTGCGACTG
switch fluorescence ratio: 0.955

CCGCTTTA
switch fluorescence ratio: 4.26

TCTATCATTC
switch fluorescence ratio: 1.05

TCTTTCATTT
switch fluorescence ratio: 1.5

CCGGAAACAT
switch fluorescence ratio: 1.12

TACTTGCAAT
switch fluorescence ratio: 3.02

TAAGTCACAC
switch fluorescence ratio: 1.04

TTGTTAGCCG
switch fluorescence ratio: 1.18

GGCGTATTCT
switch fluorescence ratio: 1.03

GTATTCCCCG
switch fluorescence ratio: 1.09

TAGTACTTGT
switch fluorescence ratio: 0.966

TCTTGGCTCC
switch fluorescence ratio: 1.06

CTATCAAAGC
switch fluorescence ratio: 1.03

TAATCTTAAA
switch fluorescence ratio: 1.06

TATCTTAACC
switch fluorescence ratio: 1.03

CTGAATTTGC
switch fluorescence ratio: 0.996

GACCTAAGTG
switch fluorescence ratio: 0.97

CACTTAGCTT
switch fluorescence ratio: 1.12

GAGCGTGTCA
switch fluorescence ratio: 1.05

GACAGCCATT
switch fluorescence ratio: 1.1

CGCGCTTTGA
switch fluorescence ratio: 0.996

TCCTGTAATT
switch fluorescence ratio: 1.07

CGTCGGCCAT
switch fluorescence ratio: 1.04

ACGACGTGTG
switch fluorescence ratio: 0.981

AGCTTGTTTC
switch fluorescence ratio: 1.02

ACCGCTCT
switch fluorescence ratio: 1.03

CAGACATAAG
switch fluorescence ratio: 1

CGCACAAGGT
switch fluorescence ratio: 1.1

GAAAGACCAA
switch fluorescence ratio: 0.977

ATGCGTACTC
switch fluorescence ratio: 1.14

CACATCGACA
switch fluorescence ratio: 1.09

ATAAATTGAG
switch fluorescence ratio: 0.961

CGAAGGCAGC
switch fluorescence ratio: 1.36

GCCCACATTT
switch fluorescence ratio: 1

TTTCGCTTCG
switch fluorescence ratio: 1.01

ATGCCTTCTC
switch fluorescence ratio: 1.09

ATGCTCATAA
switch fluorescence ratio: 0.964

AACTGTGACA
switch fluorescence ratio: 1.09

CGCCAATGGA
switch fluorescence ratio: 1.08

GACTTAATTA
switch fluorescence ratio: 1.02

CAATATGTCA
switch fluorescence ratio: 0.979

GCAAACAT
switch fluorescence ratio: 1

GCGGCACATG
switch fluorescence ratio: 0.955

GGAGATGTTC
switch fluorescence ratio: 1.04

TTTTACTGGG
switch fluorescence ratio: 1.07

TAAGGCGCT
switch fluorescence ratio: 0.97

GGGTCAGCTT
switch fluorescence ratio: 1.01

TTCTGCTCTT
switch fluorescence ratio: 1.02

GCAGTCATAT
switch fluorescence ratio: 1.01

CTTTTATGCT
switch fluorescence ratio: 0.988

TCGGTACGTC
switch fluorescence ratio: 0.949

GCGATATCC
switch fluorescence ratio: 1.42

CGTCTTTGG
switch fluorescence ratio: 1.02

CTCCCGGGG
switch fluorescence ratio: 1.15

GGTTTACACC
switch fluorescence ratio: 1.02

AGGATCCTCC
switch fluorescence ratio: 0.996

AATAACCGTG
switch fluorescence ratio: 1.02

ACATCTAGCA
switch fluorescence ratio: 1.01

TCCGATTAGC
switch fluorescence ratio: 1.49

TACGACAGCG
switch fluorescence ratio: 0.994

TGAAGTACGT
switch fluorescence ratio: 1.13

AGGTTCGCTT
switch fluorescence ratio: 0.997

TAACCACTGC
switch fluorescence ratio: 1.11

TAATACGTCT
switch fluorescence ratio: 1.03

ACGCAGTCCT
switch fluorescence ratio: 1.06

TATCGGGCAT
switch fluorescence ratio: 1.36

AGTACATGTT
switch fluorescence ratio: 1.02

GAGAAGTCAT
switch fluorescence ratio: 0.989

CCTTTCACGT
switch fluorescence ratio: 1.1

ATTCCTTTAT
switch fluorescence ratio: 1.02
